Results: the supplement of paper PMC12067093, “Discovery and optimisation of a covalent ligand for TRIM25 and its application to targeted protein ubiquitination” (Chemical Science, 2025)
Targets with the largest changes are over-represented here; the source holds about 21,000 in all.

Compound: Cc1cc(ccc1-c1ccccc1)C(=O)N1CCCN(CC1)C(=O)CCl [compound 10]
Assay: probe-labelled cysteine peptide fold change vs DMSO (competition) (log2 fold change); higher = less target engagement (more negative = stronger competition)
Settings: THP-1, incubation time: 4 h
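Note: competitive profiling in live THP-1 cells: cysteine peptides tagged with an iodoacetamide desthiobiotin (IA-DTB) probe, intensity after compound treatment relative to DMSO-treated cells.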

Sequence of UniProt Q29RF7 (Q29RF7 whole entry, looked up): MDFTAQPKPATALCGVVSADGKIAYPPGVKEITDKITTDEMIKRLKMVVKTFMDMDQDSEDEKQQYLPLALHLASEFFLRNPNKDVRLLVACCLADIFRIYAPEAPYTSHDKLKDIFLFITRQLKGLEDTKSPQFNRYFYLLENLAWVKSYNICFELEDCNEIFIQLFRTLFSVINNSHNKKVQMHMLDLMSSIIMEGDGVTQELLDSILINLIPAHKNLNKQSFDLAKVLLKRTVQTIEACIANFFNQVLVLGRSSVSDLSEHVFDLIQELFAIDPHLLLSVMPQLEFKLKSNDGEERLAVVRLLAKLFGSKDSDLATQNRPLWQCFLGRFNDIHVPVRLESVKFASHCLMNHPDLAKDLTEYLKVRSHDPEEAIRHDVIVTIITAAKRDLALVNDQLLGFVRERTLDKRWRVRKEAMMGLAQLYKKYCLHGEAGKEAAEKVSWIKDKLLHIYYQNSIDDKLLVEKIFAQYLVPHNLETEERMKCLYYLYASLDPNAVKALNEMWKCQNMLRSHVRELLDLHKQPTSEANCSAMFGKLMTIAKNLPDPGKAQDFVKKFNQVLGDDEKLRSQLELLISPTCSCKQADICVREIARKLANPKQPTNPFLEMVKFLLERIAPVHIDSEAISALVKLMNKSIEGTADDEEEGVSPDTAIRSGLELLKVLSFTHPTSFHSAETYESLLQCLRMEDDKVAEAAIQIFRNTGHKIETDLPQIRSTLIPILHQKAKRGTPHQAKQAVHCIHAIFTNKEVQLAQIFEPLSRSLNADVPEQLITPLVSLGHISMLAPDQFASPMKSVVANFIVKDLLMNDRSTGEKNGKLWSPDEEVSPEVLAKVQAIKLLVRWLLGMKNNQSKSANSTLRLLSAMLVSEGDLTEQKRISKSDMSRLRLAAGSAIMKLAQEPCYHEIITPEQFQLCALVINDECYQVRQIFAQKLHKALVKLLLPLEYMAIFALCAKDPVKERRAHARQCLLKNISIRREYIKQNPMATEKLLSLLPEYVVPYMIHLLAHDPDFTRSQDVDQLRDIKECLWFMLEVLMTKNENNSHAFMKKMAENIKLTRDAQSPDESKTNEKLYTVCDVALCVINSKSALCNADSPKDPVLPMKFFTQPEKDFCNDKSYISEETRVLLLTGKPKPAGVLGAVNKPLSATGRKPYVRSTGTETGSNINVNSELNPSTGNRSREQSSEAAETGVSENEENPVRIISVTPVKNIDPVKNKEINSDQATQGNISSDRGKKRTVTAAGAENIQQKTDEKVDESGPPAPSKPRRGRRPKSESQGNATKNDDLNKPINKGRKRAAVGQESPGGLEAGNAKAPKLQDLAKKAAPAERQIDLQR
Sequence of UniProt Q86U86 (Q86U86 whole entry, looked up): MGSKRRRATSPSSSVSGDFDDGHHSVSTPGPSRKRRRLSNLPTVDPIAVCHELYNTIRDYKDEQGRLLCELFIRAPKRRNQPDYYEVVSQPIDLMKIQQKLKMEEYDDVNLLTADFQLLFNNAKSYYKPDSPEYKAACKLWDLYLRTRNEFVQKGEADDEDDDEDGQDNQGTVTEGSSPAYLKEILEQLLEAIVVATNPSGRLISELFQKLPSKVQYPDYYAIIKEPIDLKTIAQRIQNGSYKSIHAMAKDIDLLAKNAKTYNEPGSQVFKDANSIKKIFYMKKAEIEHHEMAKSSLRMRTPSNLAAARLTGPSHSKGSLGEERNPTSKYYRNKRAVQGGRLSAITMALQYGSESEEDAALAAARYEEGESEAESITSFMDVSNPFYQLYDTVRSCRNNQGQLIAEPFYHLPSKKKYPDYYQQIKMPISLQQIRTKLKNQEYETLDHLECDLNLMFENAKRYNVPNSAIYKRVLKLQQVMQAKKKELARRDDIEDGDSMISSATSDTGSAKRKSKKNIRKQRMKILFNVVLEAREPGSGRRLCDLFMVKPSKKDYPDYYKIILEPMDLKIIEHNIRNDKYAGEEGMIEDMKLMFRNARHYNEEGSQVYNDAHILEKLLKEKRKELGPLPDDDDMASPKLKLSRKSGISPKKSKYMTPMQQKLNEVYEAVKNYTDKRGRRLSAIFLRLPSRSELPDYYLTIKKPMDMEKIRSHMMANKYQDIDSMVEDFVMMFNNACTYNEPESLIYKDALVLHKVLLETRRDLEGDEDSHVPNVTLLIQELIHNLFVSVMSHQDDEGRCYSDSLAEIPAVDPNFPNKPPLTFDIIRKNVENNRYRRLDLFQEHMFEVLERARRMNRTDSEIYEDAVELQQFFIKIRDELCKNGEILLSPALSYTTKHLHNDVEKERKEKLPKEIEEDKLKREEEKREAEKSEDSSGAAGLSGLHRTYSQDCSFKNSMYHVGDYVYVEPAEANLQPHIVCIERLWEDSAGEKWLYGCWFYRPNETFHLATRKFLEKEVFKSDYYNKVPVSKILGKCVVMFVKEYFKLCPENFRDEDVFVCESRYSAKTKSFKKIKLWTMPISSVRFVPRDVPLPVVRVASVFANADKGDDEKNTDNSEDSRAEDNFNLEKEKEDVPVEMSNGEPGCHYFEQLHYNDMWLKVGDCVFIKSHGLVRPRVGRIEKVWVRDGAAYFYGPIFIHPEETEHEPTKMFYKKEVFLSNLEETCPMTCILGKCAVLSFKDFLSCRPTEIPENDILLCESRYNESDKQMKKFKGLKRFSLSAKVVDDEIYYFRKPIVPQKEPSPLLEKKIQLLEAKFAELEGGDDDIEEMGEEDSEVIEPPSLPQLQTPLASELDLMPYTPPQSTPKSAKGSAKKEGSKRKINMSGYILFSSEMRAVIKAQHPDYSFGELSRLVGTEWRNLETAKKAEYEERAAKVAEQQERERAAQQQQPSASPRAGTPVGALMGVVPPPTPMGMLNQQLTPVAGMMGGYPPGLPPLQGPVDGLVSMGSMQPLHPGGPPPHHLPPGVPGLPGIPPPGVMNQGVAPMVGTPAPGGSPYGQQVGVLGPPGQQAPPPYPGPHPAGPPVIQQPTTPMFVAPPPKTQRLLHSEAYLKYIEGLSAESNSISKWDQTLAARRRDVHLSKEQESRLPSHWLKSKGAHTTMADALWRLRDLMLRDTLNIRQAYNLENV
Sequence of UniProt P08559 (P08559 whole entry, looked up): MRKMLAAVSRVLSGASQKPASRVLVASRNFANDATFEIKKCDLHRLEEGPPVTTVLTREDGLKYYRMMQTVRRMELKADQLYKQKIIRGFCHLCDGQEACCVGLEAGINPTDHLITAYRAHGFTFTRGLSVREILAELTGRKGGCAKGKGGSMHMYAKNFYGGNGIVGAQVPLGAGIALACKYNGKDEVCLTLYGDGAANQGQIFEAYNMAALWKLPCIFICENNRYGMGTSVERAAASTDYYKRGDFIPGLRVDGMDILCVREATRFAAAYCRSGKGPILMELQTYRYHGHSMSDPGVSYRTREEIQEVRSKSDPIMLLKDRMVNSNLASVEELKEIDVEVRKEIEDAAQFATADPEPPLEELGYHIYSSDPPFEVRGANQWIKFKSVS
Sequence of UniProt O95394 (O95394 whole entry, looked up): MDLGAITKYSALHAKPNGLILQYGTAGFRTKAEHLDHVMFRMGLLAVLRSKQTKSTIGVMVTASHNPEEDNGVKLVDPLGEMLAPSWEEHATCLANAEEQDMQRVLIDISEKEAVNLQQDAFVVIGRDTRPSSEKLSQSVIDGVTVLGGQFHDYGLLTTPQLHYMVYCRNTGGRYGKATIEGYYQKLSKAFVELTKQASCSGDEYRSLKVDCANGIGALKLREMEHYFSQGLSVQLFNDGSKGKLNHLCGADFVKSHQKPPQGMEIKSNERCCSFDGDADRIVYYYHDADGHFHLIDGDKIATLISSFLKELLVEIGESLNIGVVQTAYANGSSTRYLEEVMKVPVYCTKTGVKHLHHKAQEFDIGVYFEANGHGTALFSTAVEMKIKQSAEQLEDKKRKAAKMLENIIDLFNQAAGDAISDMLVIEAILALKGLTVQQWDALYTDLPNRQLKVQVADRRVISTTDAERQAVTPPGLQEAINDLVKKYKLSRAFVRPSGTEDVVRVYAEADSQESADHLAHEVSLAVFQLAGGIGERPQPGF
Sequence of UniProt Q9NUX5 (Q9NUX5 whole entry, looked up): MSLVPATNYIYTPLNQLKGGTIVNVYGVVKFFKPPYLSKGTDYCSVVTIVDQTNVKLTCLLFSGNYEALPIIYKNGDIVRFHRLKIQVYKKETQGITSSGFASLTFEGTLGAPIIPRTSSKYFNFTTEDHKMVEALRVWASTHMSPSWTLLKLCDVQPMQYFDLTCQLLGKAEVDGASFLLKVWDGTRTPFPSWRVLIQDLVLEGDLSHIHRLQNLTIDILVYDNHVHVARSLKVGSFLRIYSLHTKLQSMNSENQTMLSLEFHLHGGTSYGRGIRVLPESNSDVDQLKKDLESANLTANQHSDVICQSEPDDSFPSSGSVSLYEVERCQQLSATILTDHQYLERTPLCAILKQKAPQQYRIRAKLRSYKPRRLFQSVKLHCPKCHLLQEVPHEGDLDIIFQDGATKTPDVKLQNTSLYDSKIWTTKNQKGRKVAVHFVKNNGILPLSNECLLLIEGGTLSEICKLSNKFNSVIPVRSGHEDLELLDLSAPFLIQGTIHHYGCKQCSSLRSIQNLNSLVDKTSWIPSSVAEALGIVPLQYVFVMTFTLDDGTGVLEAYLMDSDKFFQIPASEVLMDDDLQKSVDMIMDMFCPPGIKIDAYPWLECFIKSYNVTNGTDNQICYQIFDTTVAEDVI
Sequence of UniProt Q9Y244 (Q9Y244 whole entry): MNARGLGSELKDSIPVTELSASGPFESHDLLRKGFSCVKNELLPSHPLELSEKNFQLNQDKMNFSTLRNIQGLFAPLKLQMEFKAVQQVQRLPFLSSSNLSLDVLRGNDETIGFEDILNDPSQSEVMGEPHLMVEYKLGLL
Sequence of UniProt Q9NVS9 (Q9NVS9 whole entry, looked up): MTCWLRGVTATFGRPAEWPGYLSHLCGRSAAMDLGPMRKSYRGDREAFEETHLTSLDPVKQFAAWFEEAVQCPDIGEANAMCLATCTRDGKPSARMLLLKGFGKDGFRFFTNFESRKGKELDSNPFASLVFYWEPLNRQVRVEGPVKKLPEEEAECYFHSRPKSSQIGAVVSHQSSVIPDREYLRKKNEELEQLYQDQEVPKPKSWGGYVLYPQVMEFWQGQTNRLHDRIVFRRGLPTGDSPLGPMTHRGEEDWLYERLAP

Target	probe-labelled cysteine peptide fold change (10 µM)	probe-labelled cysteine peptide fold change (50 µM)
PASK_Q96RG2_991_AVELEGLAACEGEYSQK (UniProt Q96RG2)	-0.902	-2
PGM2_Q96G03_86_MNDLTIIQTTQGFCR (UniProt Q96G03)	0.11	-0.14
PKM_P14618_423+424_CCSGAIIVLTK (UniProt P14618)	-0.246	-0.751
PPCDC_Q96CD2_166_AFGYVEIPCVAK (UniProt Q96CD2)	-0.138	-0.136
PPP4C_P60510_52_VDSPVTVCGDIHGQFYDLK (UniProt P60510)	0.0516	0.0898
POT1_Q9NUX5_605_IDAYPWLECFIK (UniProt Q9NUX5)	0.32	0.162
PLEKHA2_Q9HB19_332_SISLTRPGSSSLSSGPNSILCR (UniProt Q9HB19)	-0.321	-1.3
PPIL4_Q8WUA2_392_THHCSEEK (UniProt Q8WUA2)	0.0136	0.377
PGM3_O95394_249_LNHLCGADFVK (UniProt O95394)	-0.182	-0.253
PDHA1_P08559_181_NFYGGNGIVGAQVPLGAGIALACK (UniProt P08559)	0.471	0.393
POMP_Q9Y244_37_KGFSCVK (UniProt Q9Y244)	-0.332	-1.41
PNPO_Q9NVS9_156_KLPEEEAECYFHSRPK (UniProt Q9NVS9)	-0.121	-0.243
PDCD11_Q14690_361_LSCQNLGAVLDDVPVQGFFKK (UniProt Q14690)	-0.287	-2.05
PGGT1B_P53609_147_EACLAGLR (UniProt P53609)	0.157	-0.0399
PLD4_Q96BZ4_502_YAVGLDGQAPGQDCVWQG (UniProt Q96BZ4)	0.0642	0.451
POLD1_P28340_193_ELTGPAVLAVELCSR (UniProt P28340)	0.0865	0.273
POLR2B_P30876_1093_FGEMERDCQIAHGAAQFLR (UniProt P30876)	-0.399	-1.16
PPP3CA_Q08209_228_FKEPPAYGPMCDILWSDPLEDFGNEK (UniProt Q08209)	0.209	0.221
PML_P29590_57+60_CQQCQAEAK (UniProt P29590)	-0.0779	-0.261
PITPNM1_O00562_259_CNTGSEGSEAQPPGKPSTEAR (UniProt O00562)	-0.207	-0.205

Target	probe-labelled cysteine peptide fold change (10 µM)	probe-labelled cysteine peptide fold change (50 µM)
PNPLA6_Q8IY17_991_GCSHIGVLK (UniProt Q8IY17)	-0.0678	-0.101
PHF14_O94880_874_AEDLRTECATCK (UniProt O94880)	0.0189	-0.327
PDS5A_Q29RF7_686_VLSFTHPTSFHSAETYESLLQCLR (UniProt Q29RF7)	-0.155	-0.0261
PFN1_P07737_128_CYEMASHLRR (UniProt P07737)	-0.403	-0.731
POLR3E_Q9NVU0_676_LTQECGEDLSK (UniProt Q9NVU0)	0.0254	-0.0154
PPFIA1_Q13136_189_CSLLEEELGATHK (UniProt Q13136)	0.194	0.209
PHF23_Q9BUL5-4_5_MPGDCR (UniProt Q9BUL5)	0.399	1.2
PEX1_O43933_1185_TASQEGCQELTQEQR (UniProt O43933)	-0.38	-2.31
PCK2_Q16822_417_PWKPGDKEPCAHPNSR (UniProt Q16822)	-0.16	-0.314
POLA1_P09884_584_AAPKPPFQSHFCVVSKPK (UniProt P09884)	-0.0155	-0.312
PDIA3_P30101_60_ISDTGSAGLMLVEFFAPWCGHCK (UniProt P30101)	-0.259	-0.597
PIK3CD_O00329_718_ELMHLCMR (UniProt O00329)	0.197	-0.0661
PHGDH_O43175_48_EELIAELQDCEGLIVR (UniProt O43175)	-0.0456	0.0884
PBRM1_Q86U86_1035_CVVMFVK (UniProt Q86U86)	0.0846	0.286
PCIF1_Q9H4Z3_29_EEASLLSHSPGTSNQSQPCSPK (UniProt Q9H4Z3)	-0.369	-0.693
PPP2R1A_P30153_512_MTTLFCINVLSEVCGQDITTK (UniProt P30153)	0.146	0.0625
PAXIP1_Q6ZW49_136_CTHLIVPEPK (UniProt Q6ZW49)	0.11	0.308
PLXNB2_O15031_364_SFPCGSEHLPYPLGSR (UniProt O15031)	0.049	0.128
PPP4R3B_Q5MIZ7_182_LLQLFQACENLENTEGLHHLYEIIR (UniProt Q5MIZ7)	0.229	0.561
PLCB3_Q01970_193_VETALESCGLK (UniProt Q01970)	0.0155	-0.181
